Experimental findings from publication PMC4336329 (PLoS ONE, 2015) are described below.

Out of some 310,000 compounds screened, about 2,200 (0.71%) showed an effect of 50% or more. The effect is printed as a negative number. The list shows a part of the results.

For this assay, the target named is human ether-à-go-go-related gene (hERG) potassium channel (human, UniProt Q12809). The assay can be described thus: primary screen, population patch clamp on CHO cells stably expressing hERG.
Chain of human ether-à-go-go-related gene (hERG) potassium channel (Q12809 whole entry, looked up): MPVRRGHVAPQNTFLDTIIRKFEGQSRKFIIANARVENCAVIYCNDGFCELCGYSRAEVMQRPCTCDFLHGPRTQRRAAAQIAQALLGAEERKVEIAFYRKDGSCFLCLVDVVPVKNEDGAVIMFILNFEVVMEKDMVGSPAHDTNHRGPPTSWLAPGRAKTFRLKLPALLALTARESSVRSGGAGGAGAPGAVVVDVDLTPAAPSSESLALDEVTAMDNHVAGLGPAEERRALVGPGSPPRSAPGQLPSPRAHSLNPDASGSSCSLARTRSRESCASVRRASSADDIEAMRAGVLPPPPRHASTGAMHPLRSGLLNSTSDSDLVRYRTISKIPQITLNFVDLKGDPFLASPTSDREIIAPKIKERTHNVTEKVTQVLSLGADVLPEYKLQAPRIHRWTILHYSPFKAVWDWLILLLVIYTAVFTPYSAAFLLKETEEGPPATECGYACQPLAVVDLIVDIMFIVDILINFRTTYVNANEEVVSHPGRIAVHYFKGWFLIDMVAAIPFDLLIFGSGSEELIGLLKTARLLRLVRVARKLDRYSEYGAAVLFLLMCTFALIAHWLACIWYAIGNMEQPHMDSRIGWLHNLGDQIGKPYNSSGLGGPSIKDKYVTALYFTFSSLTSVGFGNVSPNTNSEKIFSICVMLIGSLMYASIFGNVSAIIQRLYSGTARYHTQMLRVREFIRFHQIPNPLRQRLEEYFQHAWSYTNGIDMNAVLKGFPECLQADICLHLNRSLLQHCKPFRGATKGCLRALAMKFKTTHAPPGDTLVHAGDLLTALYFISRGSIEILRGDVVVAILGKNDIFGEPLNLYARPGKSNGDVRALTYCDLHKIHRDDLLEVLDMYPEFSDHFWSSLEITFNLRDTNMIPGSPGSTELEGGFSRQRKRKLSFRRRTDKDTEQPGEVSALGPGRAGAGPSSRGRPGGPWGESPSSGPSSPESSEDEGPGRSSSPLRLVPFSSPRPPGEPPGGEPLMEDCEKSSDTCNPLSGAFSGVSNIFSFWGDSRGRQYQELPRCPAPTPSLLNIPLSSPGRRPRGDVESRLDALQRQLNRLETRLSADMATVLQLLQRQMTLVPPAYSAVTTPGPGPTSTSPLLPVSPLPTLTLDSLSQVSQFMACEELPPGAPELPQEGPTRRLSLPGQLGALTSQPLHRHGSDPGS
With `COc1cccc(Nc2n[nH]c(=S)s2)c1`, the “hERG current change (%, negative = inhibition) at 1uM” value was found to be 16.4%. The value for `Cn1c(SCC(=O)NCc2ccco2)nnc1-c1ccc(S(=O)(=O)N2CCOCC2)cc1` was 3.83%. As for `CS(=O)(=O)N1CCN(Cc2ccc([N+](=O)[O-])cc2)CC1`, the “hERG current change (%, negative = inhibition) at 1uM” value stood at 4.07%.

For the compound `CCCCN(C(=O)c1cccc(S(=O)(=O)N2CC(C)OC(C)C2)c1)c1c(N)n(CC(C)C)c(=O)[nH]c1=O` (stereo not drawn), the “hERG current change (%, negative = inhibition) at 1uM” value is recorded as 7.82%.

Take `O=C(Nc1nnc(C2CC2)s1)c1ccccn1`: the “hERG current change (%, negative = inhibition) at 1uM” value worked out at 11%. On to `N#Cc1nc(-c2cccs2)oc1N1CCN(c2ccccc2)CC1`, for which the “hERG current change (%, negative = inhibition) at 1uM” value is reported as 11%. The value for `CC1(C)NC(=O)N(CC(O)COc2ccc(-c3ccc(C#N)cc3)cc2)C1=O` (stereo not drawn) was -12.9%. The value for `Cc1nnc(NC(=O)CSc2ccc(-c3cccnc3)nn2)s1` was 11.5%. The value for `CC1CCN(Cc2cc(=O)oc3cc(O)c(Cl)cc23)CC1` was 12.4%.

`Cc1cc(C(F)F)nn1CC(=O)NC1CCCC1`: the “hERG current change (%, negative = inhibition) at 1uM” value turned out to be 14.3%.

Turning to `CO/N=C/C(=N\Nc1ccc(C)cc1)C(=O)c1ccc(OC)cc1`, the “hERG current change (%, negative = inhibition) at 1uM” value is on record as 18.8%. The value for `O=C(Oc1ccc(C(=S)N2CCOCC2)cc1)c1cccc(Cl)c1` was 17%; that for `CCN1CCN(C(c2cccs2)C(C)NS(=O)(=O)c2ccc(Br)cc2)CC1` (stereo not drawn) was -18.7%. The value for `O=C(CSc1nc2c(sc3ccccc32)c(=O)n1CCCN1CCOCC1)NCC1CCCO1` (stereo not drawn) was 2.38%. The value for `CNc1nc(SCc2ccc(C)cc2)nc2c1CCCC2` was 9.95%. In the case of `Cc1cc(C)n2nc(S(=O)(=O)NC(C)(C)C)nc2n1`, the “hERG current change (%, negative = inhibition) at 1uM” value was found to be 11.7%. With `CN(C(=O)CSc1nnn(C)n1)c1ccccc1`, the “hERG current change (%, negative = inhibition) at 1uM” value is on record as 10.9%. The value for `O=C(O)CC(c1ccc(C(F)(F)F)cc1)N1Cc2ccccc2C1=O` (stereo not drawn) was 12.2%; that for `COCCN(C(=O)CNC(=O)c1ccco1)C(C(=O)NC1CCCC1)c1ccc(OC)c(OC)c1` (stereo not drawn) was 4.84%; that for `Cc1occc1C(=O)Nc1sc2c(c1C(N)=O)CCCCC2` was 11.2%. The value for `CCN(CC(=O)Nc1ccc(NC(C)=O)cc1)C(=O)C1CCC1` was 7.45%.

As for `C=CCn1c(O)c(C=NCCN2CCOCC2)c(=O)[nH]c1=S`, the “hERG current change (%, negative = inhibition) at 1uM” value is reported as 11%. The value for `COc1ccc(/C=N/NC(=O)CNc2n[nH]c(=O)[nH]c2=O)cc1OC` was 11.8%. The value for `CC1CCc2c(sc(NC(=O)C3CCCO3)c2C#N)C1` (stereo not drawn) was 12.2%. The value for `COc1ccc(-c2ccc3c(c2)c(-c2cccs2)c(-c2cc(OC)cc(OC)c2)n3C)cc1` was 17.3%. Turning to `O=C(Nc1cccc(Cl)c1)Nc1nc(-c2ccccc2)cs1`, the “hERG current change (%, negative = inhibition) at 1uM” value is recorded as 11.6%.

On to `CCOC(=O)c1nnn(CC(=O)N2N=C(c3cccc4ccccc34)CC2c2ccccc2)c1C(=O)OCC` (stereo not drawn), for which the “hERG current change (%, negative = inhibition) at 1uM” value was -6.65%. The value for `CC(C)(C)c1ccc(NC(=O)COC(=O)C2(C)CC2(Cl)Cl)cc1` (stereo not drawn) was 13.1%; that for `CSc1ccc(CNCCCN(C)C)cc1.Cl` was 0.528%; that for `Cc1ccc(F)cc1NC(=O)N1c2ccccc2NC(=O)CC1C` (stereo not drawn) was 10.4%. The value for `Cc1cccc(C(=O)Oc2ccc(/C=N/NC(=O)c3ccncc3)cc2)c1` was 0.148%; that for `Cc1ncc([N+](=O)[O-])n1CC(=O)Nc1ccc(F)c(Cl)c1` was 10.7%; that for `COc1ccc(C2C(C#N)=C(N)N(c3cccnc3)C3=C2C(=O)CCC3)cc1Cn1cc([N+](=O)[O-])cn1` (stereo not drawn) was 5.05%. The value for `COc1ccc(CNC(=O)CN(Cc2ccco2)C(=O)CNS(=O)(=O)c2ccc(C)cc2)cc1` was -37.9%; that for `Br.CCCCCCCCn1ccc(=N)cc1` was -1.09%. Take `Cc1ccc(CNC(=O)CCc2c(C)nn(-c3ccc(N4CCOCC4)nn3)c2C)cc1`: the “hERG current change (%, negative = inhibition) at 1uM” value was 12.5%.

Regarding `COc1ccc2cc3cc(C(=O)NCc4ccccn4)oc3nc2c1`, the “hERG current change (%, negative = inhibition) at 1uM” value was 10.7%. The value for `COc1ccc(C(=O)NNC(=O)C2CC=CCC2)cc1` (stereo not drawn) was 13.4%; that for `CCN(C(=O)CN1CCCCC1)C1(C)C(=O)c2ccccc2C1=O` was 16.7%. The value for `Cn1ccnc1SCc1nc2c(cnn2-c2ccccc2)c(=O)[nH]1` was 6%; that for `Cc1nn(-c2ccc(F)cc2)c2nc(N)c(C#N)c(-c3cccs3)c12` was 15.4%; that for `O=C1c2c(Br)c(Br)c(Br)c(Br)c2C(=O)N1c1ccccn1` was 13.4%. On to `O=C(Nc1ccccc1)c1cccc(S(=O)(=O)NC2CCCC2)c1`, for which the “hERG current change (%, negative = inhibition) at 1uM” value is 10.4%.

Regarding `COC(=O)N/N=C(C)/C=C/c1ccccc1`, the “hERG current change (%, negative = inhibition) at 1uM” value is 10.2%. The value for `Nc1nc(-c2ccco2)nn1C(=O)c1ccc(Cl)cc1` was 10.2%; that for `CCc1cc(Cn2nc(-c3ccccc3)cc2C(=O)O)on1` was 8.24%.

As to `CCCC(=O)c1cc(F)c(N2CCOCC2)cc1C`, the “hERG current change (%, negative = inhibition) at 1uM” value is -0.637%. The value for `Cc1ccccc1C(=O)Nc1sc(C)c(C)c1C(=O)c1ccccc1` was 22.1%; that for `S=c1[nH]nc(COc2ccccc2)n1/N=C/c1cccnc1` was 8.46%. The value for `CC(C)(O)CNC(=O)Nc1ccc(Cl)c(Cl)c1` was 12.9%; that for `O=C(NCc1cccs1)c1ccc(CS(=O)Cc2ccccc2Cl)o1` (stereo not drawn) was 13.3%; that for `CC(=O)Nc1ccc(SCCN2CC[C@@H](C)CCC2=O)cc1` was 8.01%. The value for `Cc1ccc(-n2nnnc2SCC(=O)Nc2ccccc2N2CCCCC2)cc1C` was 16.2%.

With `C=C1CCN([C@@H](Cc2ccccc2)C(=O)NC2CCN(Cc3ccccc3)CC2)S(=O)(=O)c2ccccc21`, the “hERG current change (%, negative = inhibition) at 1uM” value was determined as 10.4%.

For `Cc1cc(C)c(NC(=O)CSc2nc3[nH]ncc3c(=O)[nH]2)c(C)c1`, the “hERG current change (%, negative = inhibition) at 1uM” value worked out at 16.3%. The value for `COC(=O)C1=C(SC)N(c2ccccc2)C(c2ccccc2)CC1=O` (stereo not drawn) was 7.42%; that for `CC(Sc1nncn1-c1ccccc1)C(=O)Nc1cccc([N+](=O)[O-])c1` (stereo not drawn) was 1.72%. Consider `Cc1ccc(S(=O)(=O)Nc2ccccc2CNc2ccccn2)cc1`, for which the “hERG current change (%, negative = inhibition) at 1uM” value was determined as 11.1%.

For `Cn1c(OCc2ccc3c(c2)OCO3)nc2c1c(=O)n(Cc1ccc(Cl)c(Cl)c1)c(=O)n2C`, the “hERG current change (%, negative = inhibition) at 1uM” value is listed as -2.01%. Consider `COc1ccc(OC)c(/C=C2\SC(N3CCCCC3)=NC2=O)c1`, for which the “hERG current change (%, negative = inhibition) at 1uM” value was determined as 2.01%. The value for `Cc1[nH]c2ccc(OCc3ccccc3)cc2c1CCN.Cl` was 14.8%; that for `CC(C)(C)c1ccc(OCCC(=O)NC2=NCCS2)cc1` was 14.3%. The value for `Cc1cc(C)n(C(=O)CNC(=O)C(c2ccccc2)c2ccccc2)n1` was 5.62%; that for `Cc1ccc(C2C3=C(CC(C)(C)CC3=O)Nc3n[nH]c(C)c32)cc1` (stereo not drawn) was -0.291%; that for `COc1cccc(CC2(CO)CCCN(Cc3cn[nH]c3-c3cc(C)ccc3C)C2)c1` (stereo not drawn) was -7.67%. The value for `CC(C)c1cc(C(=O)Nc2cc(Cl)ccc2O)no1` was 7.84%; that for `CCC(C)n1ncn(-c2ccc(N3CCN(c4ccc(O)cc4)CC3)cc2)c1=O` (stereo not drawn) was 3.22%; that for `CC(C)(C)NC(=O)COC(=O)CCC(=O)c1cccs1` was 11%. As to `CN(CCc1ccccc1)c1ccc([N+](=O)[O-])cn1`, the “hERG current change (%, negative = inhibition) at 1uM” value amounted to 13.5%. The value for `NS(=O)(=O)c1ccc(CNC(=O)COc2ccc3c4c(c(=O)oc3c2)CCCC4)cc1` was 17.4%; that for `CCC(C)(C)NC(=O)CN(C(=O)c1ccc(N2CCCC2)nc1)c1ccc(F)cc1` was 16.1%; that for `CC(C)n1c(SCC(=O)NC2CC2)nnc1-c1ccco1` was 11.8%. For `O=C(Nc1ncccc1Cl)c1cc2ccccc2o1`, the “hERG current change (%, negative = inhibition) at 1uM” value was 14.2%.

Consider `NS(=O)(=O)c1ccc(CCNC(=O)C2CCCN2S(=O)(=O)c2cccc3nsnc23)cc1` (stereo not drawn), for which the “hERG current change (%, negative = inhibition) at 1uM” value was found to be 16.5%. The value for `Cc1onc(-c2ccccc2)c1C(=O)NCC(O)c1ccccc1` (stereo not drawn) was 6.14%. The value for `O=C(NCc1ccc(C(=O)N2CCC3(CC2)OCCO3)cc1)c1cccc(Br)c1` was 19.7%. The value for `O=C(NC1CC1)c1ccc2c(Cl)c3c(nc2c1)CCCC3` was -25.6%; that for `Nc1n[nH]c2cc(=O)n(-c3ccc(Cl)cc3)nc12` was 12.8%. Consider `CNC(=O)CSc1nc2nn(-c3ccccc3)c(=O)c-2c2n1CCCCC2`, for which the “hERG current change (%, negative = inhibition) at 1uM” value is on record as -9.14%.

In the case of `O=C(O)C1Cc2ccccc2CN1C(=O)COc1ccc(Br)cc1` (stereo not drawn), the “hERG current change (%, negative = inhibition) at 1uM” value is given as 18.5%.

In the case of `Cl.NCCc1nnc(SCc2c(Cl)cccc2Cl)o1`, the “hERG current change (%, negative = inhibition) at 1uM” value is reported as 8.57%.

On to `COCCNC(=S)N1CCN(S(=O)(=O)c2ccc(Cl)s2)CC1`, for which the “hERG current change (%, negative = inhibition) at 1uM” value is 4.26%. The value for `O=C1N/C(=N\N=C\c2cccs2)SC1Cc1ccc(Cl)cc1Cl` (stereo not drawn) was -2.8%; that for `O=C(NCCCN1CCOCC1)c1ccc(CS(=O)(=O)Cc2ccccc2Cl)o1` was 9.53%. The value for `Cc1csc(NC(=O)C2CCCN2C(=O)OCC(C)C)n1` (stereo not drawn) was 13.2%.

As to `O=C(Oc1ccccc1C(=O)N1CCOCC1)c1cccc(Br)c1`, the “hERG current change (%, negative = inhibition) at 1uM” value stood at 6.19%. With `COC(=O)c1cc2sc(Cl)cc2n1CC(=O)N1CCCc2ccccc21`, the “hERG current change (%, negative = inhibition) at 1uM” value was found to be 3.75%. The value for `COc1ccc(C2C(C#N)=C(N)Oc3c2ccc2cccnc32)cc1OC` (stereo not drawn) was 3.43%; that for `Cc1sc2nc(CSc3cccc(C(F)(F)F)c3)[nH]c(=O)c2c1C` was 13.4%; that for `CN(C)CCCN(C(=O)COc1ccccc1)c1nc2cc3c(cc2s1)OCO3.Cl` was -28.2%.
